Laboratory results from publication PMC4336329 (PLoS ONE, 2015).
In all, about 310,000 compounds went through this assay and about 2,200 (0.71%) showed an effect of 50% or more. The effect is printed as a negative number. The list shows a part of the results.

Molecular target: human ether-à-go-go-related gene (hERG) potassium channel (human, UniProt Q12809)
Assay: primary screen, population patch clamp on CHO cells stably expressing hERG

Chain of human ether-à-go-go-related gene (hERG) potassium channel (Q12809 whole entry, looked up): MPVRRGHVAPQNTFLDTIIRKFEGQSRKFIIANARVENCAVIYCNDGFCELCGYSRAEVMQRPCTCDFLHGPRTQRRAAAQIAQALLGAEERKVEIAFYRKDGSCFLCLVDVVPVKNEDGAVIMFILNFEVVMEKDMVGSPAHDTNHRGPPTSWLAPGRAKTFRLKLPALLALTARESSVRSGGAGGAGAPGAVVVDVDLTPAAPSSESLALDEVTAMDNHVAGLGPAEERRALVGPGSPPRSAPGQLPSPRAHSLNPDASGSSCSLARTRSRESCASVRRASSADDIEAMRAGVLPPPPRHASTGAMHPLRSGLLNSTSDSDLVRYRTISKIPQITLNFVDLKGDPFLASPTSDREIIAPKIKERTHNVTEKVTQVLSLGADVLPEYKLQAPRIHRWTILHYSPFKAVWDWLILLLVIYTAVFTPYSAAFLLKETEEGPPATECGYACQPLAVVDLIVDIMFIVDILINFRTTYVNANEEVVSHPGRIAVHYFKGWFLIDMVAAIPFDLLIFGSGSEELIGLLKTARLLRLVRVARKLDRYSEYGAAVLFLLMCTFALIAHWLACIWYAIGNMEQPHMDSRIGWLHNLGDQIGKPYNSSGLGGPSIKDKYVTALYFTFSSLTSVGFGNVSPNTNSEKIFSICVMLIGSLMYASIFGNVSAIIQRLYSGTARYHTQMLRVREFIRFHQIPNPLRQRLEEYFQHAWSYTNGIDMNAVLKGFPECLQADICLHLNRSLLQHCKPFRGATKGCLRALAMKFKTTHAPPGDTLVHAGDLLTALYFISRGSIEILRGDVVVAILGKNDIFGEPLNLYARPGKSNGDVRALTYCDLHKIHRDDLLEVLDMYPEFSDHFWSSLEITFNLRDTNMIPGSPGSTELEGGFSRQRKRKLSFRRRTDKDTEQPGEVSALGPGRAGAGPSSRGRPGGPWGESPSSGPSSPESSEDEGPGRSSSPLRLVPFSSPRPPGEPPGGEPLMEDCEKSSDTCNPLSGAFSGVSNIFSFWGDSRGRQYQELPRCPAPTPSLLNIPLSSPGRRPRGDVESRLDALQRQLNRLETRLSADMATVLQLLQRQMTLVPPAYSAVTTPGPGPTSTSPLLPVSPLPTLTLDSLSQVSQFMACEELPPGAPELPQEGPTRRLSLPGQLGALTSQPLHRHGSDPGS

First: c1ccc(N2CCN(c3nc(-c4cccs4)nc4ccccc34)CC2)cc1
Second: O=C(c1ccccc1)c1cnc(Nc2ccccc2Cl)s1
The “hERG current change (%, negative = inhibition) at 1uM” value of the first is higher: 4.12% for the first, -1.88% for the second.

First: CCN(CC)S(=O)(=O)c1ccc(NC2c3ccccc3C(=O)N2Cc2ccco2)cc1 (centres unmarked)
Second: Cc1ccc(S(=O)(=O)c2cn(CC(=O)Nc3ccccc3)c3ccc(F)cc3c2=O)cc1
The “hERG current change (%, negative = inhibition) at 1uM” value of the first is lower: 9.64% for the first, 9.84% for the second.

Compared with `COC(CNC(=O)c1c[nH]c2ccc(S(=O)(=O)N(C)c3ccc(F)cc3)cc2c1=O)OC`, `COc1ccc(CCNC(=O)c2cc3cc(F)ccc3nc2C)cc1OC` is higher in “hERG current change (%, negative = inhibition) at 1uM” value: 11.7% for the first, 22.4% for the second.

Going from `COc1cc2cc(CCOC(=O)c3ccc(C#N)cc3)oc(=O)c2cc1OC` to `COc1ccc(C(=O)CC(=O)C(=O)Nc2cc([N+](=O)[O-])ccc2OC)cc1`, the “hERG current change (%, negative = inhibition) at 1uM” value rises from -4.07% to 13.4%.

Going from `CC1(C)CC(NC(=O)c2cc([N+](=O)[O-])cc([N+](=O)[O-])c2)CC(C)(C)N1` to `Cc1ccc(C(=O)OC(C)C(=O)N(C)C2CCCCC2)cc1S(=O)(=O)N1CCCCC1` (centres unmarked), the “hERG current change (%, negative = inhibition) at 1uM” value falls from 16.7% to 12.3%.

First: NC(=O)C1(N2CCCCC2)CCN(C(=S)NC2CCCC2)CC1
Second: Cc1ccc(C(C(=O)NC2CCCC2)N(C(=O)CNC(=O)c2ccco2)c2ccccc2)o1 (centres unmarked)
The “hERG current change (%, negative = inhibition) at 1uM” value of the first is higher: 11.2% for the first, -1.97% for the second.

First: Nc1c(C(=O)NCC2CCCO2)c2nc3ccccc3nc2n1Cc1ccco1 (centres unmarked)
Second: Cc1ccc(-c2nnn(CC(=O)N(c3ccc4c(c3)OCCO4)C(C(=O)NCC3CCCO3)c3ccc(F)cc3)n2)o1 (centres unmarked)
The “hERG current change (%, negative = inhibition) at 1uM” value of the first is higher: 13.5% for the first, 10.9% for the second.

First: Cc1[nH]n(C)c(=O)c1N=Nc1ccc(S(C)(=O)=O)cc1
Second: CC1(C)Cc2cccc(OCC(=O)NCc3ccc(F)cc3)c2O1
The “hERG current change (%, negative = inhibition) at 1uM” value of the first is higher: 2.01% for the first, 0.591% for the second.

Going from `CCC(C)(C)n1nnnc1C(c1cc2ccc(OC)cc2[nH]c1=O)N1CCCCC1` (centres unmarked) to `COCCn1nnnc1C(c1ccc(OC)c(OC)c1)N1CCN(C(=O)c2ccco2)CC1` (centres unmarked), the “hERG current change (%, negative = inhibition) at 1uM” value rises from -13% to 8.77%.

Compared with `CN=C1S/C(=C\c2c(OC)cc(OC)cc2OC)C(=O)N1C`, `Cn1c(=O)cc(SCC(=O)NCCN2CCN(c3ccccc3F)CC2)c2cc(Cl)ccc21` is lower in “hERG current change (%, negative = inhibition) at 1uM” value: 18.5% for the first, 5.42% for the second.

Compared with `Cc1ccccc1OCC(=O)NC1=NCCS1`, `O=C1NCC(COCc2ccccc2)O1` (centres unmarked) is higher in “hERG current change (%, negative = inhibition) at 1uM” value: 2.77% for the first, 5.8% for the second.

In the case of `C/C(=N\O)c1ccco1`, the “hERG current change (%, negative = inhibition) at 1uM” value is reported as 14.9%.
